# Assay results reported in patent publication US20150283263A1 (ADC THERAPEUTICS S A, published 2015).
# T1: CD25 (human, UniProt P01589 22-272)
# T1 sequence (looked up): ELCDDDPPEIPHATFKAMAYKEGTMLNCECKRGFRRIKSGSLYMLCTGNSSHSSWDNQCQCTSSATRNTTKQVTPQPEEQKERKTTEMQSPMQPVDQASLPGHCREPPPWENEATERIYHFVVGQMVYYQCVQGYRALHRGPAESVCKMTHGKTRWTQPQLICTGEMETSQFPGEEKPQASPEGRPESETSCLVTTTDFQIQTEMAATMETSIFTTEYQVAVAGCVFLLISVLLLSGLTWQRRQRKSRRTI
# B1: HuMax-TAC-E (other)
# VH: QVQLVQSGAEVKKPGSSVKVSCKASGGTFSRYIINWVRQAPGQGLEWMGRIIPILGVENYAQKFQGRVTITADKSTSTAYMELSSLRSEDTAVYYCARKDWFDYWGQGTLVTVSSASTKGPSVFPLA
# VL: EIVLTQSPGTLSLSPGERATLS[omitted - about 80 residues]TFGGGTKVEIKRTVAAPSVFIFP
# modifications: PBD drug-linker E conjugated to reduced interchain cysteine thiols; DAR 2.3
# B2: HuMax-TAC-D (other)
# VH: B1 VH
# VL: EIVLTQSPGTLSLSPGERATLS[omitted - about 80 residues]TFGGGTKVEIKRTVAAPSVFIFP
# modifications: PBD drug-linker D conjugated to reduced interchain cysteine thiols; DAR 1.25
# B3: HuMax-TAC-A (other)
# VH: B1 VH
# VL: EIVLTQSPGTLSLSPGERATLS[omitted - about 80 residues]TFGGGTKVEIKRTVAAPSVFIFP
# modifications: PBD drug-linker A conjugated to reduced interchain cysteine thiols; DAR 2.19
# Experiments:
# CD25 [1] = target: T1, CD25; assay: cell-based or functional assay
# CD25 [2] = target: T1, CD25; assay: cell-based or functional assay; remark: listed apart in the source
Binder,"EC50 (µg/mL), MTS cytotoxicity assay on SU-DHL-1 cells (CD25 [1]) [µg/mL]","EC50 (µg/mL), MTS cytotoxicity assay on Karpas299 cells (CD25 [2]) [µg/mL]"
B1,0.000592,0.000742
B2,0.00104,0.00338
B3,,0.00206
